Assay results as given in PubChem BioAssay AID1347417 (National Center for Advancing Translational Sciences (NCATS), 2020).
The whole screen tested about 120,000 compounds, of which about 5,300 (4.4%) were called active. This list was built around the results that the source calls inconclusive (neither active nor inactive); the mix of calls is not that of the screen. The call rests on the fitted dose curve; in most records, active means well fitted inhibition curve with a large enough effect; inconclusive means small, poorly fitted or top-dose-only effect; inactive means no such curve, though single readings can be large or run the other way. Potencies beside an inconclusive call are fits to weak or partial responses and may not hold up.
Potency means the concentration at half of the fitted maximal effect; tags describe the fitted curve by direction and shape.

Assay: qHTS Primary assay for Inhibitors of Plasmodium falciparum Dd2 growth in vitro; further: nearly all actives have a fitted effect of over 65% in size;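 on activity, negative = inhibition: plate controls were DMSO vehicle for no effect and reference drug for full effect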
Conditions: P. falciparum Dd2 growth, SYBR Green, 72 h; activity, negative = inhibition: at 28.9 µM (top of the series) unless noted; series mostly up to 28.9 µM
Method in brief: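 Infected erythrocytes (Dd2, 0.3% parasitemia, 2.5% hematocrit final) are added to compound in RPMI-1640/Albumax II medium, grown 72 h at 37C in low oxygen, then lysed with saponin/Triton-X containing SYBR Green and read by fluorescence.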
With `Cc1cccc(C(=O)N2CCC(n3cnnc3-c3ccccc3)CC2)c1` the Potency was inconclusive: 12.6 µM [inhibitor, single point]. In the case of `CC(C)CNC(=O)C(NC(=O)CC(C)C)C1CCN(C(=O)c2cccc(Br)c2)CC1` (stereo not drawn), the Potency is reported as “inactive”. For `COc1ccc(-n2cc(-c3ccccc3)nc2SCC(=O)Nc2ccccc2)cc1Cl`, the Potency was inconclusive: 17.8 µM [inhibitor, single point]. For `CCCn1c(NCc2ccccc2C)nc2ccccc21`, the Potency was inconclusive: 12.6 µM [inhibitor, single point]. In the case of `Cc1cc2nc3n(c(=O)c2n1CC(=O)NCCc1ccc(Cl)cc1)CCC3`, the Potency is reported as “inactive”. In the case of `COCCN1CCC(C(=O)Nc2cccc(NC(=O)Cc3ccccc3)c2)C1` (stereo not drawn), the Potency is reported as inconclusive: 8.91 µM [inhibitor, partial curve]. For `O=C(NC1CCCCC1)[C@@H]1C[C@@H](O)CN1C1CCN(C(=O)c2ccccn2)CC1`, the Potency was “inactive”. With `COCCCn1c(C)cnc1C1CCN(S(=O)(=O)Cc2ccccc2)C1` (stereo not drawn) the Potency was inconclusive: 4.47 µM [inhibitor, partial curve]. With `CCOC(=O)C(C)Oc1cccn2c(=O)c(-c3cc(C)n(-c4ccc(Cl)cc4)n3)c(C)nc12` (stereo not drawn) the Potency was inconclusive: 2.82 µM [inhibitor, full curve]. With `COc1ccc(OCC(=O)NCC(c2ccc(Cl)cc2)N2CCCCC2)cc1` (stereo not drawn) the Potency was active: 7.94 µM. For `COCCCNC(=O)c1sc2nc(C)c(C(=O)Nc3ccc(C)cc3C)c(-c3ccc(Cl)cc3)c2c1N`, the Potency was inconclusive: 8.91 µM [inhibitor, single point]. For `CC(C)CCN1CCCN(CCN(C)C)c2ccccc21`, the Potency was inconclusive: 2.82 µM [inhibitor, full curve]. With `CC(=O)Nc1ccc(S(=O)(=O)N2CCC(Oc3ccc(-n4cnnn4)cc3)CC2)cc1` the Potency was inconclusive: 8.91 µM [inhibitor, partial curve, poor fit]. With `COc1cc2c(cc1OCc1ccncc1)NC(=O)C21CCN(Cc2nccs2)CC1` the Potency was inconclusive: 31.6 µM [inhibitor, single point]. For `CN(Cc1nccn1C)C(=O)c1csc2nc(-c3ccc(C(F)(F)F)cc3)cn12`, the Potency was inconclusive: 20 µM [inhibitor, single point]. In the case of `O=C(c1ccc(C2CCNC2)cc1)N(Cc1ccccc1)CC1CCC1` (stereo not drawn), the Potency is reported as active: 12.6 µM. For `Cc1ncc(CN2CCCC2C(=O)Nc2ccc(-c3cccc(F)c3)cc2)n1C` (stereo not drawn), the Potency was inconclusive: 7.94 µM [inhibitor, single point]. In the case of `COc1ccc(-c2cc(N3CCCC(NC(=O)c4cc5ccccc5[nH]4)C3)n[nH]2)cc1` (stereo not drawn), the Potency is reported as inconclusive: 3.98 µM [inhibitor, partial curve]. For `COc1ccc(Cn2c(C3CCN(C(=O)c4cc(C)cc(C)c4)CC3)n[nH]c2=O)cc1`, the Potency was inconclusive: 12.6 µM [inhibitor, single point]. With `COCCOC1CCOC2(CCN(C(=O)Nc3ccc(OC)cc3)CC2)C1` (stereo not drawn) the Potency was inconclusive: 5.01 µM [inhibitor, partial curve, poor fit]. With `O=C1CCN(C2CCCC2)CCCC(c2nc(-c3cccnc3)no2)CCN1` (stereo not drawn) the Potency was active: 0.708 µM. For `Cc1nc2c(c(-c3ccc(Cl)cc3)n1)CCN(C(=O)c1ccccc1C)CC2`, the Potency was “inactive”. In the case of `CC(C)Cc1ccc(CN2CCC3(CC2)Cc2ccccc2CNC3=O)cc1`, the Potency is reported as active: 11.2 µM. In the case of `CC(NC(=O)COc1ccc(F)cc1F)c1ccccc1-n1cccn1` (stereo not drawn), the Potency is reported as inconclusive: 20 µM [inhibitor, partial curve, poor fit]. With `Cc1cc2nc(CO[C@H]3CN(Cc4ccc(S(C)(=O)=O)cc4)C[C@H]3F)[nH]c2cc1C` the Potency was inconclusive: 15.8 µM [inhibitor, single point]. For `CN(Cc1cccc2cnccc12)C(=O)c1cc(COc2ccccc2F)[nH]n1`, the Potency was “inactive”. With `CN(C)C[C@@H]1CN(Cc2ccncc2)C[C@H]1NC(=O)NCc1ccccc1` the Potency was “inactive”. With `Cc1c(CNC(C)CCc2ccccc2)c(C(=O)O)c(C)n1Cc1ccc(F)cc1Cl` (stereo not drawn) the Potency was inconclusive: 10 µM [inhibitor, single point]. In the case of `Cc1noc(C)c1[S+](=O)([O-])N1CCc2nc(C3CC3)nc(-c3ccc(Cl)cc3)c2CC1`, the Potency is reported as “inactive”. With `Cc1nc(NCCc2nccc(-c3ccccc3)n2)cc(C2CC(O)C2)n1` (stereo not drawn) the Potency was inconclusive: 8.91 µM [inhibitor, single point]. With `COCCN1C(=O)c2cccn2CC1CNC(=O)c1ccc2ccccc2n1` (stereo not drawn) the Potency was inconclusive: 17.8 µM [inhibitor, single point]. In the case of `C[C@@H]1CN(C(=O)c2ccn(C(C)(C)C)c2)CC[C@@]1(O)C1CCOCC1`, the Potency is reported as “inactive”. With `COc1cccc(N2C(=O)NC(=NC3CCCCC3)C23CCN([S+](=O)([O-])c2cccc(OC)c2)CC3)c1` the Potency was inconclusive: 8.91 µM [inhibitor, partial curve, poor fit]. In the case of `O=C(CC1CCN(C(=O)Nc2ccccc2F)C1)NCc1ccccc1` (stereo not drawn), the Potency is reported as “inactive”. With `CS(=O)(=O)N1CCC(OC2CCN(C(=O)NC3CCCCC3)CC2)CC1` the Potency was “inactive”. With `CCOc1ccc(-c2cc3c(=O)n(CCNC(=O)c4cccc(C#N)c4)ccn3n2)cc1` the Potency was inconclusive: 1 µM [inhibitor, full curve]. With `O=C1COCCN1c1cc(-c2cccc(F)c2)cn2cncc12` the Potency was “inactive”. For `Cc1ocnc1C(=O)N(C)CC1CCCN(CCc2ccc(Cl)cc2)C1` (stereo not drawn), the Potency was inconclusive: 5.62 µM [inhibitor, partial curve, poor fit]. With `Cc1ccc(CCN2CCC3(Cc4ccccc4CNC3=O)C2)cc1` (stereo not drawn) the Potency was inconclusive: 8.91 µM [inhibitor, partial curve, poor fit]. With `C=CCNC(=O)[C@@H]1CCCN1[C@@H](C(=O)NC)C1CCCCC1` the Potency was inconclusive: 31.6 µM [inhibitor, single point]. In the case of `COCCCN1CC2(CCN(C(=O)CCCc3cccs3)CC2)CC1=O`, the Potency is reported as “inactive”. For `CCOc1ccc(C(=O)Nc2ccc3nc(SCc4ccccc4)sc3c2)cc1`, the Potency was “inactive”. With `O=C1NC2(Cc3ccccc31)CN([S+](=O)([O-])c1ccccc1)C2` the Potency was inconclusive: 2.82 µM [inhibitor, partial curve, poor fit]. In the case of `Cn1cccc1CN1CC(Oc2ccc3c(c2)OCO3)C1`, the Potency is reported as “inactive”. With `Cn1ncc(N2CCC(CNC(=O)C3=Cc4ccccc4OC=C3)C2)cc1=O` (stereo not drawn) the Potency was inconclusive: 8.91 µM [inhibitor, partial curve, poor fit]. In the case of `COc1cccc(-n2cc(C(=O)NCc3cccc(Cl)c3)c3ccccc3c2=O)c1`, the Potency is reported as inconclusive: 17.8 µM [inhibitor, single point]. For `CC[C@H]1CN2CC[C@H]1C[C@@H]2CNCc1ccc2c(c1)OCO2`, the Potency was inconclusive: 3.55 µM [inhibitor, single point]. For `CCOCCCNC(=O)CN1CCCc2nc(C3CC3)ncc2C1=O`, the Potency was “inactive”. For `O=C(NCc1nnc2n1C(C(=O)NCc1ccc3c(c1)OCO3)CC2)C1CC1` (stereo not drawn), the Potency was “inactive”. In the case of `COc1ccc(S(=O)(=O)Nc2cc3c(cc2NCc2ccccc2)n(C)c(=O)n3C)cc1OC`, the Potency is reported as inconclusive: 14.1 µM [inhibitor, partial curve, poor fit]. With `O=C(C[C@@H]1C[C@H]2O[C@H](CNC3CCCC3)[C@@H](O)[C@H]2O1)N1CCC(F)(F)C1` the Potency was “inactive”. With `N#Cc1ccc(C(=O)Nc2ccc([C@@H](O)[C@H]3COCC(=O)N3)cc2)cc1` the Potency was inconclusive: 14.1 µM [inhibitor, partial curve, poor fit]. For `CCCCN1CCc2nc(N3CCN(c4ncccn4)CC3)ncc2C1`, the Potency was inconclusive: 10 µM [inhibitor, single point]. For `CCOc1ccccc1CN1CCCC12Cc1ccccc1CNC2=O` (stereo not drawn), the Potency was inconclusive: 8.91 µM [inhibitor, partial curve]. For `CC(C)C[C@@H]1N[C@H](C(=O)NCc2cccs2)Cc2c[nH]c3cccc1c23`, the Potency was inconclusive: 7.94 µM [inhibitor, partial curve]. For `COCc1ncc(C)n1CC1CCN(C(=O)CCc2ccc(OC)cc2)CC1`, the Potency was inconclusive: 12.6 µM [inhibitor, single point]. With `CCCn1cc(-c2ccncc2)cc1C(=O)N1CCN(c2ccccn2)CC1` the Potency was inconclusive: 17.8 µM [inhibitor, single point]. With `O=c1[nH]c(N2CCOCC2)nc2c1CCN(Cc1ccccc1Br)CC2` the Potency was active: 1.26 µM. For `Cn1c2ccccc2c2c(C(=O)N3CCN(c4ccc(F)cc4)CC3)cn(C3CCCCC3)c(=O)c21`, the Potency was inconclusive: 17.8 µM [inhibitor, single point]. In the case of `O=C1NC2(CCN(C(=O)c3cccnc3)CC2)COc2ccccc21`, the Potency is reported as inconclusive: 25.1 µM [inhibitor, single point]. In the case of `O=C(O)CCn1ncc2cc(OCC3CCN(C(=O)COc4ccccc4)CC3)ccc21`, the Potency is reported as “inactive”. In the case of `O=C(c1ccncc1)N1CC2CCC(C1)N2Cc1ccc(-c2ccsc2)cc1`, the Potency is reported as inconclusive: 17.8 µM [inhibitor, single point] and the activity, negative = inhibition is reported as inconclusive: -55.8% [inhibitor]. With `COc1ccc(C(=O)Nc2cccc(-c3nnc4n3CCCC4)c2)cn1` the Potency was inconclusive: 11.2 µM [inhibitor, single point]. With `CN1CCCCCC(O)c2cc(C(=O)N3CCOCC3)ccc21` (stereo not drawn) the Potency was “inactive”. For `COCCn1cnc2ccc(-c3ccc4c(c3)OCO4)nc2c1=O`, the Potency was inconclusive: 7.94 µM [inhibitor, partial curve, poor fit]. For `CCOc1ccccc1Nc1cc(-c2ccccc2)nc(C)n1`, the Potency was inconclusive: 8.91 µM [inhibitor, single point]. In the case of `COc1ccc(Cn2c(C3CCN(C(=O)Cc4ccc(Cl)cc4)CC3)n[nH]c2=O)cc1`, the Potency is reported as inconclusive: 7.08 µM [inhibitor, partial curve, poor fit].
